Test results taken from article PMC7476737, “Targeting 14-3-3ε-CDC25A interactions to trigger apoptotic cell death in skin cancer” (Oncotarget, 2020).
No constants are given. Whether binding was seen depends on the method and setting. In cells and extracts the contact can be indirect. Some binding calls cover weakened binding; strength is not graded here. Blank lines part the entries; values can stand above or below the molecule they belong to.

Sequences of proteins named here, by UniProt entry; tags and fusion partners are left off.
UniProt P62258: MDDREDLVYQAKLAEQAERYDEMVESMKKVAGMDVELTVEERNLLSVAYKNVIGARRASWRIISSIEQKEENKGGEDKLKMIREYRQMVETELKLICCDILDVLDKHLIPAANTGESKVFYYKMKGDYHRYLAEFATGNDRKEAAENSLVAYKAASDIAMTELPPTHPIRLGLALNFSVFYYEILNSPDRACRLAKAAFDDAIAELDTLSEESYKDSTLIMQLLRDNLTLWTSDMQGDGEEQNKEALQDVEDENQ
UniProt P63104: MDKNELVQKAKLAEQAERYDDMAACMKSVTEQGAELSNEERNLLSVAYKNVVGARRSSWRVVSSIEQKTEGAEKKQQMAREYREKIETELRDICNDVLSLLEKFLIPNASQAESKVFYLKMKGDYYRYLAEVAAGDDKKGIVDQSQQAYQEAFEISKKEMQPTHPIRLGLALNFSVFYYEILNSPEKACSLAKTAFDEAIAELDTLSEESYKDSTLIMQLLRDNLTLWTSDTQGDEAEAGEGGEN
UniProt P31946: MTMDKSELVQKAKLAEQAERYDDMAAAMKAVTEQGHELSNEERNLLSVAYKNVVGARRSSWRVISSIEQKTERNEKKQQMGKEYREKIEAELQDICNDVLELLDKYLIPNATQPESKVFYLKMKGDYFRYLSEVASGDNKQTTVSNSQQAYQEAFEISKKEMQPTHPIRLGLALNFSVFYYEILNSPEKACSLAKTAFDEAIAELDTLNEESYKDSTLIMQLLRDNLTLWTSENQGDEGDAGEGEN

Key:
[1] = target: T1, CDC25A (human (endogenous in SCC12B.2 and nHEK)) (UniProt P30304); experiment: condition: only in nHEK cells (normal keratinocytes); co-IP; anti-CDC25A antibody on Dynabeads Protein G, 100 mg of nHEK (normal keratinocyte) cell lysate; immunoblot for 14-3-3 family members
T1 sequence: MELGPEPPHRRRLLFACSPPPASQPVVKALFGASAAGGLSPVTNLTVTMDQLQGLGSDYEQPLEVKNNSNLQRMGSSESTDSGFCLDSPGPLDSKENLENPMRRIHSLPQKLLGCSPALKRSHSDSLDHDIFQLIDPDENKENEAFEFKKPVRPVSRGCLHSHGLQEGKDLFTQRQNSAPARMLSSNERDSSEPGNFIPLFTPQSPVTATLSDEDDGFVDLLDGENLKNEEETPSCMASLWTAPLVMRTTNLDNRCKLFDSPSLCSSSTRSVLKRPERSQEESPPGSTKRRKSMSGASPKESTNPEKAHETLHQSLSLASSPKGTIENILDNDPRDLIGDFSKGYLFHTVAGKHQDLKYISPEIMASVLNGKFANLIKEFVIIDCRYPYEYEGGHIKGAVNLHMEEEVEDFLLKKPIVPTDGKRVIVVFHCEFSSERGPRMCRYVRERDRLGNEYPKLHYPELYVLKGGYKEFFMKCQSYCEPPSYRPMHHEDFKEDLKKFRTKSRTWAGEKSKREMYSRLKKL

[2] = target: T1, CDC25A (human (endogenous in SCC12B.2 and nHEK)); experiment: co-IP; anti-CDC25A antibody on Dynabeads Protein G, 100 mg of SCC12B.2 cell lysate, 4°C 30 min, IP buffer with 100 mM NaCl, 2 mM DTT, 1 mM MgCl2; immunoblot for 14-3-3 family members
[3] = target: T1, CDC25A (human (endogenous in SCC12B.2 and nHEK)); experiment: co-IP; anti-CDC25A antibody on Dynabeads Protein G, 100 mg of nHEK (normal keratinocyte) cell lysate; immunoblot for 14-3-3 family members
[4] = target: 14-3-3ε (human (endogenous in SCC12B.2 and nHEK)) (UniProt P62258); experiment: co-IP; synthetic peptide (pS 30 μM or pT 20 μM) added to living SCC12B.2 cells for 48 h; read-out is the loss of CDC25A from the 14-3-3ε immunoprecipitate; only the binder purified
[5] = target: 14-3-3ε (human (endogenous in SCC12B.2 and nHEK)) (UniProt P62258); experiment: co-IP; anti-14-3-3ε antibody on Dynabeads Protein G; SCC12B.2 cells treated with vehicle (20 mM Tris, pH 7.5), pS (30 μM) or pT (20 μM) for 48 h in Opti-MEM before lysis; immunoblot for CDC25A
[6] = target: 14-3-3ε (human (endogenous in SCC12B.2 and nHEK)) (UniProt P62258); experiment: co-IP; anti-14-3-3ε antibody on Dynabeads Protein G, 100 mg of SCC12B.2 cell lysate, 4°C 30 min; immunoblot for CDC25A

Molecule: 14-3-3ζ (from UniProt P63104 1-245)
- binding [1]: no binding
- binding [2]: binds

Molecule: 14-3-3β (from UniProt P31946 1-246)
- binding [2]: no binding
- binding [3]: no binding

Molecule: 14-3-3ε (from UniProt P62258 1-255)
- binding [1]: no binding
- binding [2]: binds

B2: 14-3-3γ (protein, UniProt P61981 1-247)
chain: MVDREQLVQKARLAEQAERYDDMAAAMKNVTELNEPLSNEERNLLSVAYKNVVGARRSSWRVISSIEQKTSADGNEKKIEMVRAYREKIEKELEAVCQDVLSLLDNYLIKNCSETQYESKVFYLKMKGDYYRYLAEVATGEKRATVVESSEKAYSEAHEISKEHMQPTHPIRLGLALNYSVFYYEIQNAPEQACHLAKTAFDDAIAELDTLNEDSYKDSTLIMQLLRDNLTLWTSDQQDDDGGEGNN
- binding [1]: no binding
- binding [2]: binds

Next, values leading:

- binding [2]: no binding
- binding [3]: no binding
B1: 14-3-3θ (protein, UniProt P27348 1-245)
chain: MEKTELIQKAKLAEQAERYDDMATCMKAVTEQGAELSNEERNLLSVAYKNVVGGRRSAWRVISSIEQKTDTSDKKLQLIKDYREKVESELRSICTTVLELLDKYLIANATNPESKVFYLKMKGDYFRYLAEVACGDDRKQTIDNSQGAYQEAFDISKKEMQPTHPIRLGLALNFSVFYYEILNNPELACTLAKTAFDEAIAELDTLNEDSYKDSTLIMQLLRDNLTLWTSDSAGEECDAAEGAEN

- binding [4]: binds
Molecule: FRTKSRTWAGEKSKR (peptide, UniProt P30304 501-515, phosphothreonine at 507; N-terminal acetyl; C-terminal amide) [pT peptide (501-515 fragment of human CDC25A with phospho-Thr507)]

- binding [5]: binds
- binding [6]: binds
B3: CDC25A (protein, UniProt P30304 1-524)
chain: T1 sequence

- binding [4]: binds
Molecule: TQRQNSAPARMLSS (peptide, UniProt P30304 173-186, phosphoserine at 178; N-terminal acetyl; C-terminal amide) [pS peptide (173-186 fragment of human CDC25A with phospho-Ser178)]
